{"source": "paper PMC9363500", "about": "(2022)", "target": "6×His–PYK2 KFL_([…]) (human, fluorescent label from the NanoTemper His-tag labelling kit (MST, fluorescence anisotropy); 13C,15N or 15N labelling (NMR))", "assay": "MST; 1 mM EGTA"}
{"binder": "PYK2 FERM–kinase (domain or fragment) not shown", "values": [{"measurement": "Kd", "value": 1170, "unit": "nM"}]}
